Measured values published in paper PMC4336329 (PLoS ONE, 2015).
The campaign covered roughly 310,000 compounds. About 2,200 (0.71%) showed an effect of 50% or more. Effects have a minus sign here. The list shows a part of the results.

Molecular target: human ether-à-go-go-related gene (hERG) potassium channel (human, UniProt Q12809)
Assay: primary screen, population patch clamp on CHO cells stably expressing hERG

Chain of human ether-à-go-go-related gene (hERG) potassium channel (Q12809 whole entry, looked up): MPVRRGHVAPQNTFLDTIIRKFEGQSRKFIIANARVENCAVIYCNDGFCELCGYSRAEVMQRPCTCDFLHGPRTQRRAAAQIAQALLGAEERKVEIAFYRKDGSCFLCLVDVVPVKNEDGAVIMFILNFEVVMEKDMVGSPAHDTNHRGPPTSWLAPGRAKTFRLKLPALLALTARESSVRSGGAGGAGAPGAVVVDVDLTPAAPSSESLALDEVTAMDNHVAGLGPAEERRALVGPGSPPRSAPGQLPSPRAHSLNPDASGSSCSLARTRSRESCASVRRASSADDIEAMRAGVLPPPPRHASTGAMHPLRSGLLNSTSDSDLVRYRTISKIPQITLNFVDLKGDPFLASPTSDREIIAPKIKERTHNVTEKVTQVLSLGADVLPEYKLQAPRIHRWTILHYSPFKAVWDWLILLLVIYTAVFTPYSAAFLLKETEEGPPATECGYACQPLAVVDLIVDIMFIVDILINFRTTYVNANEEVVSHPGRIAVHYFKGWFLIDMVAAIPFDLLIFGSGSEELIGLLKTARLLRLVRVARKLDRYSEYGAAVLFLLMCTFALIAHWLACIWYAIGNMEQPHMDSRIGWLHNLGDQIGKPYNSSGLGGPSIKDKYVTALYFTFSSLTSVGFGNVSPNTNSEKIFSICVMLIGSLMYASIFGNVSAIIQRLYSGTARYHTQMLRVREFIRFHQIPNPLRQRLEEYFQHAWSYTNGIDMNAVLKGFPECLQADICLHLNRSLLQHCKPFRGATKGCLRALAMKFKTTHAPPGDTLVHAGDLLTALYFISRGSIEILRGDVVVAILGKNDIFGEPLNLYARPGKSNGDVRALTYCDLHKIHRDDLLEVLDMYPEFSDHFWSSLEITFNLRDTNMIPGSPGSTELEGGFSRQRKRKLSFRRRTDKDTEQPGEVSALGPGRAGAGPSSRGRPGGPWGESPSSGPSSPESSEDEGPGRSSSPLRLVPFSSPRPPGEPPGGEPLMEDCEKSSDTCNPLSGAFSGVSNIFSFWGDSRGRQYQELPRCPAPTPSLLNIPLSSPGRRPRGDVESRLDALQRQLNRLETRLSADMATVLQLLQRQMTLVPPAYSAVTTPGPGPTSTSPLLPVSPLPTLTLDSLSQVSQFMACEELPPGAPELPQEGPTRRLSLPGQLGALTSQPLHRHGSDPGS

In order of rising “hERG current change (%, negative = inhibition) at 1uM” value:
1. CSC1=NC2(CC(c3ccccc3)Oc3cc(O)ccc32)CC(C)(C)N1 (stereo not shown)  -68.8%
2. CCOC(=O)C1=C(N)OC2=C(C(=O)CCC2)C12C(=O)N1c3c(ccc(C)c32)C(C)=CC1(C)C (stereo not shown)  -8.24%
3. CC(Oc1cc2oc(=O)c3c(c2cc1Cl)CCCC3)C(=O)NCc1cccnc1 (stereo not shown)  -4.57%
4. O=[N+]([O-])c1cccnc1NCCc1ccccc1  -2.74%
5. CNC(=S)NNC(=O)c1sccc1C  -1.58%
6. COc1ccccc1/C=C/C(=O)OCCN1C(=O)c2ccccc2C1=O  -0.119%
7. O=C(NC(NC(=S)Nc1ccc(Cl)cc1)C(Cl)(Cl)Cl)c1ccco1 (stereo not shown)  0.276%
8. COc1cccc(OC)c1C(=O)Nc1nc2ccc(S(C)(=O)=O)cc2s1  0.628%
9. CC1CCCCC1NC(=O)CSc1ccc([N+](=O)[O-])cc1 (stereo not shown)  0.651%
10. COc1ccc(CN(C(=O)c2ccccc2OC)C2CCS(=O)(=O)C2)cc1 (stereo not shown)  0.962%
11. CCN(CC(=O)NCc1cccs1)C(=O)c1ccc(NS(=O)(=O)c2ccc(F)cc2)cc1  2.01%
12. CC(C)=CCN1CCN(Cc2ccc(Oc3ncccn3)cc2)CC1CCO (stereo not shown)  2.09%
13. N#CC1=C(N)N=C(SCc2ccccc2)C(C(N)=O)C12CCCCC2 (stereo not shown)  3.52%
14. Cc1ccn2c(NC(C)(C)C)c(-c3cccs3)nc2c1  4.49%
15. O=C(Nc1nnc(CSCc2ccc(F)cc2)s1)c1ccc([N+](=O)[O-])cc1  4.5%
16. O=C(NCCCN1CCCC1=O)c1cccs1  4.94%
17. COc1cccc(C2=NOC(C(=O)Nc3cc(C)nn3-c3ccccc3)C2)c1OC (stereo not shown)  5.72%
18. NC(=O)C1(N2CCCCC2)CCN(C(=S)NCCc2ccccc2)CC1  5.79%
19. CCOc1ccccc1Nc1cc(C)nc2nnnn12  6.21%
20. CCOc1ccc(-c2nonc2NC(=O)c2ccco2)cc1  6.42%
21. CC(C)C(=O)Nc1ccc(C(=O)N2CCCCCC2)cc1  6.54%
22. COc1cc(/C=N/NC(=O)c2ccncc2)ccc1OC(=O)c1ccc([N+](=O)[O-])cc1  7.59%
23. CCN1CCN(c2ncnc3c2sc(=S)n3-c2ccccc2)CC1  7.93%
24. COc1ccc(NC(=O)COC(=O)c2c3c(nc4ccccc24)CCCC3)cc1  8.15%
25. COc1cc(NC(C)=O)ccc1-c1cc2ccccc2oc1=O  8.15%
26. COc1ccc(NC(=O)CCS(=O)(=O)c2cccc3nonc23)cc1  8.21%
27. COc1ccc(NC(=O)Oc2cc(C)ccc2C(C)C)cc1  8.47%
28. O=c1oc2ccccc2c2c1nc(C(F)(F)F)n2-c1ccccc1  8.51%
29. CC(C)Oc1ccc(C(=O)OCC(=O)NCCNC(=O)COC(=O)c2ccc(OC(C)C)cc2)cc1  8.62%
30. Cc1ccc(CN2CCC(n3nccc3NC(=O)C3CCOC3)CC2)cc1C (stereo not shown)  8.82%
31. COCCN(C(=O)/C=C/c1ccccc1)c1c(N)n(Cc2ccccc2)c(=O)[nH]c1=O  8.91%
32. CC1CCCCN1C(=O)Nc1cccc(C(F)(F)F)c1 (stereo not shown)  9.57%
33. Cc1cccc(N(CC(=O)N2CCCCCC2)S(C)(=O)=O)c1C  9.58%
34. c1ccc(-c2n[nH]c3c2CCC3)cc1  10.1%
35. O=C(CSc1ccccc1C(=O)O)NC1CCCCCC1  10.1%
36. Cc1ccc(NC(=O)N2CCCC2C(=O)Nc2ccc3c(c2)OCO3)cc1 (stereo not shown)  10.4%
37. CCOC(=O)c1nnn(-c2ccc(OC)cc2)c1N  10.4%
38. O=C(CNC(=S)N(Cc1ccccc1)Cc1cccnc1)NCCN1CCOCC1  10.5%
39. CCCOC(=O)Cn1cnc2scc(-c3ccc(C)cc3)c2c1=O  10.5%
40. COc1ccc(/C=N/Nc2nnc(Cc3ccc(OC)c(OC)c3)c(=O)[nH]2)cc1  10.5%
41. Cc1ccc(NC(=O)CSc2nnc(-c3cccnc3)o2)c(C)c1  11%
42. O=C(c1ccccn1)c1ccc2ccccc2n1  11.3%
43. COc1cc(/C=C2\SC(=S)N(CCC(=O)Nc3ccccc3O)C2=O)cc(OC)c1OC  12.8%
44. Cc1cc(C)cc(NC(=O)C(C)N2C(=O)c3ccccc3C2=O)c1 (stereo not shown)  13.4%
45. CC(C)CNC(=O)COC(=O)c1ccc2c(c1)C(=O)N(Cc1ccco1)C2=O  13.5%
46. Nc1nc(NCc2ccccc2)nc(NCc2ccccc2)c1[N+](=O)[O-]  13.5%
47. Cc1noc(NS(=O)(=O)c2ccc(NC(=O)/C=C/c3ccc(Br)cc3)cc2)c1C  13.5%
48. Cc1n[nH]c(=O)c2c(NC(=O)CSc3ccc(Br)cc3)oc(C)c12  13.8%
49. CC(NCc1ccccc1O)C12CC3CC(CC(C3)C1)C2.Cl (stereo not shown)  14.3%
50. CC(=O)Nc1cc(C(=O)N2CCOCC2)ccc1S(=O)(=O)c1ccc(C)cc1  14.9%
51. Cc1cc(N)n2nc(-c3ccc(C(C)(C)C)cc3)cc2n1  15.2%
52. Cc1ccc(CCNC(=O)C2CC(c3ccc(C(F)(F)F)cc3)=NO2)cc1 (stereo not shown)  15.6%
53. CCn1c(Oc2cccc(Br)c2)nc2c1c(=O)n(C)c(=O)n2C  15.7%
54. Cl.O=C(O)CN1C2=NCCCN2c2ccccc21  15.8%
55. Cc1nc2ccccc2cc1C(=O)N(C)Cc1ccccc1  16.3%
56. O=P(C(Cl)Cl)(N1CCOCC1)N1CCOCC1  17.8%
57. CCc1ccc2nc3sc(C(=O)O)cc3cc2c1  19.2%
58. O=c1[nH]c(/C(=N\O)c2ccccc2)no1  21.9%
